Test results: publication PMC9911399, “Two distinct binding modes provide the RNA-binding protein RbFox with extraordinary sequence specificity”
Where a chain is given by its changes, count along the chain named. This is one part of the list.

T1: RBFOX1 RRM RbFoxmut (Fox-RRM*) (Homo sapiens, UniProt Q9NWB1 109-208, R118D;E147R;N151S;E152T)
T1 sequence: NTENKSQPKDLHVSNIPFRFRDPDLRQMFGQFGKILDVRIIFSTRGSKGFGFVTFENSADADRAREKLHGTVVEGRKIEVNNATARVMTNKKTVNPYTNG

B1: GGUAUCU (DNA:RNA)
RNA: GGGAGACCGGAAUUCAGAUUGUCCGGUAUCUUUAAAUCCCGUCGUAGCCACCA
DNA 1: CAATCTGAATTCCGGTCTCCC
DNA 2: TGGTGGCTACGACGGGATT
B2: GUUUCAC (DNA:RNA)
RNA: B1 RNA with G26U, A28U, U29C, C30A, U31C
DNA 1: CAATCTGAATTCCGGTCTCCC
DNA 2: TGGTGGCTACGACGGGATT
B3: CCACUUU (DNA:RNA)
RNA: B1 RNA with G25C, G26C, U27A, A28C, C30U
DNA 1: CAATCTGAATTCCGGTCTCCC
DNA 2: TGGTGGCTACGACGGGATT
B4: AAGGGCG (DNA:RNA)
RNA: B1 RNA with G25A, G26A, U27G, A28G, U29G, U31G
DNA 1: CAATCTGAATTCCGGTCTCCC
DNA 2: TGGTGGCTACGACGGGATT
B5: AUCCCCC (DNA:RNA)
RNA: B1 RNA with G25A, G26U, U27C, A28C, U29C, U31C
DNA 1: CAATCTGAATTCCGGTCTCCC
DNA 2: TGGTGGCTACGACGGGATT
B6: CCGUCGG (DNA:RNA)
RNA: GGGAGACCGGAAUUCAGAUUGUCCCCGUCGGUUAAAUCCCGUCGUAGCCACCA
DNA 1: CAATCTGAATTCCGGTCTCCC
DNA 2: TGGTGGCTACGACGGGATT
B7: CAAGAAG (DNA:RNA)
RNA: B6 RNA with C26A, G27A, U28G, C29A, G30A
DNA 1: CAATCTGAATTCCGGTCTCCC
DNA 2: TGGTGGCTACGACGGGATT
B8: GAUCACC (DNA:RNA)
RNA: B1 RNA with G26A, A28C, U29A, U31C
DNA 1: CAATCTGAATTCCGGTCTCCC
DNA 2: TGGTGGCTACGACGGGATT
B9: GCAAUGG (DNA:RNA)
RNA: B6 RNA with C25G, G27A, U28A, C29U
DNA 1: CAATCTGAATTCCGGTCTCCC
DNA 2: TGGTGGCTACGACGGGATT
B10: CGUAAGG (DNA:RNA)
RNA: B6 RNA with C26G, G27U, U28A, C29A
DNA 1: CAATCTGAATTCCGGTCTCCC
DNA 2: TGGTGGCTACGACGGGATT
B11: GACAUCA (DNA:RNA)
RNA: B1 RNA with G26A, U27C, U31A
DNA 1: CAATCTGAATTCCGGTCTCCC
DNA 2: TGGTGGCTACGACGGGATT
B12: CGACAAA (DNA:RNA)
RNA: B6 RNA with C26G, G27A, U28C, C29A, G30A, G31A
DNA 1: CAATCTGAATTCCGGTCTCCC
DNA 2: TGGTGGCTACGACGGGATT
B13: UACGCUA (DNA:RNA)
RNA: B6 RNA with C25U, C26A, G27C, U28G, G30U, G31A
DNA 1: CAATCTGAATTCCGGTCTCCC
DNA 2: TGGTGGCTACGACGGGATT
B14: UGGGAAA (DNA:RNA)
RNA: B6 RNA with C25U, C26G, U28G, C29A, G30A, G31A
DNA 1: CAATCTGAATTCCGGTCTCCC
DNA 2: TGGTGGCTACGACGGGATT
B15: UCGAGUC (DNA:RNA)
RNA: B6 RNA with C25U, U28A, C29G, G30U, G31C
DNA 1: CAATCTGAATTCCGGTCTCCC
DNA 2: TGGTGGCTACGACGGGATT
B16: GUCCUUA (DNA:RNA)
RNA: B1 RNA with G26U, U27C, A28C, C30U, U31A
DNA 1: CAATCTGAATTCCGGTCTCCC
DNA 2: TGGTGGCTACGACGGGATT
B17: UGAACCC (DNA:RNA)
RNA: B1 RNA with G25U, U27A, U29C, U31C
DNA 1: CAATCTGAATTCCGGTCTCCC
DNA 2: TGGTGGCTACGACGGGATT
B18: GCAGAUU (DNA:RNA)
RNA: B1 RNA with G26C, U27A, A28G, U29A, C30U
DNA 1: CAATCTGAATTCCGGTCTCCC
DNA 2: TGGTGGCTACGACGGGATT
B19: UCUGCCC (DNA:RNA)
RNA: B6 RNA with C25U, G27U, U28G, G30C, G31C
DNA 1: CAATCTGAATTCCGGTCTCCC
DNA 2: TGGTGGCTACGACGGGATT
B20: UCCGCAG (DNA:RNA)
RNA: B6 RNA with C25U, G27C, U28G, G30A
DNA 1: CAATCTGAATTCCGGTCTCCC
DNA 2: TGGTGGCTACGACGGGATT
B21: ACAAGCU (DNA:RNA)
RNA: B1 RNA with G25A, G26C, U27A, U29G
DNA 1: CAATCTGAATTCCGGTCTCCC
DNA 2: TGGTGGCTACGACGGGATT
B22: GUUACAA (DNA:RNA)
RNA: B1 RNA with G26U, U29C, C30A, U31A
DNA 1: CAATCTGAATTCCGGTCTCCC
DNA 2: TGGTGGCTACGACGGGATT
B23: CCAGAAC (DNA:RNA)
RNA: B6 RNA with G27A, U28G, C29A, G30A, G31C
DNA 1: CAATCTGAATTCCGGTCTCCC
DNA 2: TGGTGGCTACGACGGGATT
B24: CCCACAU (DNA:RNA)
RNA: B6 RNA with G27C, U28A, G30A, G31U
DNA 1: CAATCTGAATTCCGGTCTCCC
DNA 2: TGGTGGCTACGACGGGATT
B25: GGAAUAA (DNA:RNA)
RNA: B1 RNA with U27A, C30A, U31A
DNA 1: CAATCTGAATTCCGGTCTCCC
DNA 2: TGGTGGCTACGACGGGATT
B26: GCUCCGA (DNA:RNA)
RNA: B6 RNA with C25G, G27U, U28C, G31A
DNA 1: CAATCTGAATTCCGGTCTCCC
DNA 2: TGGTGGCTACGACGGGATT
B27: CCAUUAC (DNA:RNA)
RNA: B6 RNA with G27A, C29U, G30A, G31C
DNA 1: CAATCTGAATTCCGGTCTCCC
DNA 2: TGGTGGCTACGACGGGATT
B28: UUAUCAA (DNA:RNA)
RNA: B6 RNA with C25U, C26U, G27A, G30A, G31A
DNA 1: CAATCTGAATTCCGGTCTCCC
DNA 2: TGGTGGCTACGACGGGATT
B29: UUACGAG (DNA:RNA)
RNA: B6 RNA with C25U, C26U, G27A, U28C, C29G, G30A
DNA 1: CAATCTGAATTCCGGTCTCCC
DNA 2: TGGTGGCTACGACGGGATT
B30: GCUAUGU (DNA:RNA)
RNA: B1 RNA with G26C, C30G
DNA 1: CAATCTGAATTCCGGTCTCCC
DNA 2: TGGTGGCTACGACGGGATT
B31: CUGCGGG (DNA:RNA)
RNA: B6 RNA with C26U, U28C, C29G
DNA 1: CAATCTGAATTCCGGTCTCCC
DNA 2: TGGTGGCTACGACGGGATT

Biological target: T1, RBFOX1 RRM RbFoxmut (Fox-RRM*)
Experiment: EMSA; HiTS-Eq, 1 nM pool, 10 min; buffer printed only for the single-RNA assays: 10 mM Tris pH 7.5, 150 mM NaCl, 3.4 mM EDTA, 0.001% NP-40, 30 C
Conditions: tags: His6 N-terminal (pET28a); label: 5' 32P
Method in brief: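 A pool of RNA with 7 randomized nucleotides, 5′-radiolabelled and with DNA-annealed flanks, was equilibrated at 1 nM for 10 min in 50 µL with purified RbFox RRM, wild type or mutant, across increasing protein concentrations. Free RNA was separated by 8% native PAGE, excised, reverse-transcribed, barcoded by PCR and sequenced. Relative association constants were obtained from read-count changes of each RNA species versus the control reaction and normalised to the cognate motif.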

| Binder | binding signal |
| --- | --- |
| B1 | 0.206 KA relative to UGCAUGU |
| B2 | 0.12 KA relative to UGCAUGU |
| B3 | 0.0912 KA relative to UGCAUGU |
| B4 | 0.0948 KA relative to UGCAUGU |
| B5 | 0.0511 KA relative to UGCAUGU |
| B6 | 0.0701 KA relative to UGCAUGU |
| B7 | 0.0974 KA relative to UGCAUGU |
| B8 | 0.049 KA relative to UGCAUGU |
| B9 | 0.0714 KA relative to UGCAUGU |
| B10 | 0.0908 KA relative to UGCAUGU |
| B11 | 0.116 KA relative to UGCAUGU |
| B12 | 0.0565 KA relative to UGCAUGU |
| B13 | 0.106 KA relative to UGCAUGU |
| B14 | 0.0842 KA relative to UGCAUGU |
| B15 | 0.122 KA relative to UGCAUGU |
| B16 | 0.0907 KA relative to UGCAUGU |

| Binder | binding signal |
| --- | --- |
| B17 | 0.0521 KA relative to UGCAUGU |
| B18 | 0.0853 KA relative to UGCAUGU |
| B19 | 0.0726 KA relative to UGCAUGU |
| B20 | 0.0819 KA relative to UGCAUGU |
| B21 | 0.084 KA relative to UGCAUGU |
| B22 | 0.0644 KA relative to UGCAUGU |
| B23 | 0.0931 KA relative to UGCAUGU |
| B24 | 0.102 KA relative to UGCAUGU |
| B25 | 0.122 KA relative to UGCAUGU |
| B26 | 0.0815 KA relative to UGCAUGU |
| B27 | 0.106 KA relative to UGCAUGU |
| B28 | 0.0756 KA relative to UGCAUGU |
| B29 | 0.0808 KA relative to UGCAUGU |
| B30 | 0.23 KA relative to UGCAUGU |
| B31 | 0.0951 KA relative to UGCAUGU |
